# From PubChem BioAssay (Tox21)
# The shares of active, inactive and inconclusive entries below differ from those in the screen. For some assays here: Potencies of inconclusive entries are doubtful fits and often do not repeat. The source made the active and inactive calls. Unless noted, calls follow the shape of the dose curve; as a rule, active = well fitted curve in the direction sought with a large enough effect in the repeat runs; inconclusive = weak or mixed curves; inactive = no such curve, though single readings can be large; an effect the other way counts as inactive or inconclusive.
# Columns and labels:
# [1] = qHTS assay for small molecule agonists of the p53 signaling pathway (AID 651631; calls by dose curve; also: nearly all actives have a fitted effect of over 15% in size; also: potency is read from the fitted curve at half-maximal effect; as to activation: % is scaled to controls: 0 for no effect and ±100 for the full control effect); conditions: HCT-116 p53RE-bla reporter, beta-lactamase FRET ratio, 16 h; activation: at 73.3 µM (top of the series) unless noted
# How it was run: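 Readout was fluorescence from the LiveBLAzer FRET substrate, applied for 2 h at room temperature after 16 h compound exposure at 37 °C. Cells were the p53RE-bla HCT-116 line, with beta-lactamase driven by p53 response elements.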
# [2] = qHTS assay for small molecule disruptors of the mitochondrial membrane potential (AID 720635); conditions: HepG2 mitochondrial membrane potential, Mito-MPS dye ratio; ratio activity, negative = MMP loss: at 83.2 µM (top of the series) unless noted; also: potency is read from the fitted curve at half-maximal effect
# How it was run: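 HepG2 cells exposed to compound 1 hr at 37C, then Mito-MPS dye 30 min. Ratio read of aggregate (540/590 nm) versus monomer (490/535 nm) fluorescence.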
# [3] = qHTS assay for identifying genotoxic compounds that show differential cytotoxicity against isogenic chicken DT40 cell lines with known DNA damage response pathways - wild type cell line (AID 743012); conditions: DT40 wild type chicken cells viability, CellTiter-Glo, 40 h; activity change, negative = cytotoxicity: at 68.4 µM (top of the series) unless noted; also: nearly all actives have a fitted effect of over 60% in size; also: potency is read from the fitted curve at half-maximal effect
# How it was run: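 Wild type DT40, 300 cells/well, ~0.5 h settle at 37 C/5% CO2; compounds in DMSO added by pintool; 40 h at 37 C/5% CO2; CellTiter-Glo, 30 min RT; luminescence.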
# [4] = qHTS assay to identify small molecule antagonists of the thyroid receptor (TR) signaling pathway - cell viability counter screen (AID 743064); conditions: GH3.TRE-Luc viability, CellTiter-Fluor, 24 h; activity change, negative = cytotoxic: at 70.3 µM (top of the series) unless noted; also: potency is read from the fitted curve at half-maximal effect; nearly all actives have a fitted effect of over 50% in size
# How it was run: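 In-well cytotoxicity read by CellTiter-Fluor (30 min, 37 C) following 23.5 h exposure of GH3 cells bearing a TRE-luciferase sensor. Compounds were added alongside 1 nM (final) T3 to drive TR transactivation.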
# [5] = biological target: Peroxisome proliferator-activated receptor gamma (Homo sapiens) (UniProt P37231); experiment: qHTS assay to identify small molecule antagonists of the peroxisome proliferator-activated receptor gamma (PPARg) signaling pathway (AID 743191; calls by dose curve; also: % is scaled to controls: 0 for no effect and ±100 for the full control effect; nearly all actives have a fitted effect of over 30% in size); conditions: HEK293H PPARg-UAS-bla, beta-lactamase ratio, antagonist, 17 h; ratio activity, negative = inhibition: at 62.6 µM (top of the series) unless noted
# How it was run: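 GeneBLAzer PPARg UAS-bla HEK293H cells, 5 h post-plating, exposed to compounds 17 h at 37C. LiveBLAzer B/G FRET substrate added for 1 h at room temperature; beta-lactamase reporter read by fluorescence intensity.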
# [6] = biological target: Vitamin D3 receptor (Homo sapiens) (UniProt P11473); experiment: qHTS assay to identify small molecule antagonists of the vitamin D receptor (VDR) signaling pathway (AID 743223; active = well fitted inhibition curve with a large enough effect in the signal ratio in the repeat runs, not every such curve was filed as active; inconclusive = weak or mixed curves, or effect the other way; inactive = no such curve, though single readings can be large or run the other way; the % refers to the signal ratio; also: % is scaled to controls: 0 for no effect and ±100 for the full control effect); conditions: VDR-UAS-bla HEK293T, beta-lactamase FRET ratio, 16 h; activity change, negative = inhibition: at 61 µM (top of the series) unless noted
# How it was run: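 Antagonist mode: compound added to VDR-bla cells alongside agonist 1alpha,25-dihydroxyvitamin D3 (3 nM final), incubation 16 h at 37C. Read-out is LiveBLAzer FRET fluorescence, 2 h at room temperature.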
# [7] = qHTS assay to identify small molecule agonists of the estrogen receptor beta (ER-beta) signaling pathway - cell viability counter screen (AID 1259380); also: potency is read from the fitted curve at half-maximal effect; nearly all actives have a fitted effect of over 30% in size
# How it was run: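 HEK293T ER-beta-UAS-bla; 2% CS-FBS; 6 hr pre-plate, 16 hr cpd at 37C/5% CO2; LiveBLAzer read first, then CellTiter-Glo 30 min RT, luminescence.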
# [8] = biological target: Progesterone receptor (Homo sapiens) (UniProt P06401); experiment: qHTS assay to identify small molecule antagonists of the progesterone receptor (PR) signaling pathway (AID 1346795; active = well fitted inhibition curve with a large enough effect in the signal ratio in the repeat runs, not every such curve was filed as active; inconclusive = weak or mixed curves; the % refers to the signal ratio; also: potency is read from the fitted curve at half-maximal effect); conditions: PR-UAS-bla HEK293T, beta-lactamase FRET ratio, 16 h; activity change, negative = inhibition: at 92.4 µM (top of the series) unless noted
# How it was run: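 Antagonist mode with agonist R5020 at 1 nM final and 16 hr incubation at 37C. Reporter was beta-lactamase driven by UAS in HEK293T (PR-UAS-bla), 2% charcoal-stripped serum; signal from LiveBLAzer FRET substrate, 2 hr at room temperature.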
# [9] = biological target: Cytochrome P450 2C19 (Homo sapiens) (UniProt P33261); experiment: Cytochrome P450 Family 2 Subfamily C Member 19 (CYP2C19) small molecule antagonists: luciferase reporter qHTS assay (AID 1671197); also: nearly all actives have a fitted effect of over 65% in size; also: potency is read from the fitted curve at half-maximal effect
# How it was run: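 Inhibition of CYP2C19 was scored from loss of luminescence in a P450-Glo proluciferin substrate assay, NADPH-started and run 1 h at 37C, with ketoconazole as positive control.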
# [10] = biological target: Cytochrome P450 2D6 (Homo sapiens) (UniProt P10635); experiment: Cytochrome P450 Family 2 Subfamily D Member 6 (CYP2D6) small molecule antagonists: luciferase reporter qHTS assay (AID 1671196); also: nearly all actives have a fitted effect of over 50% in size; also: potency is read from the fitted curve at half-maximal effect
# How it was run: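 Read-out is luminescence from luciferin formed by CYP2D6 turnover of a proluciferin substrate, recorded as relative luminescence units. Reactions ran 1 h at room temperature after NADPH regeneration solution was added.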
# [11] = qHTS assay for identifying genotoxic compounds that show differential cytotoxicity against isogenic chicken DT40 cell lines with known DNA damage response pathways - Rev3 mutant cell line (AID 743014); conditions: chicken DT40 Rev3-/- viability, CellTiter-Glo, 40 h; activity, negative = cytotoxicity: at 68.4 µM (top of the series); also: nearly all actives have a fitted effect of over 55% in size; also: potency is read from the fitted curve at half-maximal effect
# [12] = qHTS assay for identifying genotoxic compounds that show differential cytotoxicity against isogenic chicken DT40 cell lines with known DNA damage response pathways - Rad54/Ku70 mutant cell line (AID 743015); conditions: DT40 Rad54/Ku70 mutant viability, CellTiter-Glo, 40 h; activity change, negative = cytotoxicity: at 66.8 µM (top of the series); also: % is scaled to controls: 0 for no effect and ±100 for the full control effect; nearly all actives have a fitted effect of over 60% in size
# [13] = qHTS assay to identify small molecule agonists of the progesterone receptor (PR) signaling pathway - cell viability counter screen (AID 1346799; calls by dose curve; also: nearly all actives have a fitted effect of over 45% in size; also: potency is read from the fitted curve at half-maximal effect)
# How it was run: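 Cytotoxicity measured by CellTiter-Glo luminescence (30 min, RT) in the same wells as the PR beta-lactamase agonist read. Those HEK293T cells had 16 h compound treatment at 37 C in 2% charcoal-stripped FBS medium.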
# [14] = biological target: Cytochrome P450 2C9 (Homo sapiens) (UniProt P11712); experiment: Cytochrome P450 Family 2 Subfamily C Member 9 (CYP2C9) small molecule antagonists: luciferase reporter qHTS assay (AID 1671198); also: nearly all actives have a fitted effect of over 50% in size; also: potency is read from the fitted curve at half-maximal effect
# How it was run: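 P450-Glo proluciferin substrate with CYP2C9 enzyme; 10 min RT preincubation, then NADPH regeneration 1 h at 37C; luciferin detection reagent 20 min RT, luminescence in relative luminescence units.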
# [15] = qHTS assay for small molecule agonists of the antioxidant response element (ARE) signaling pathway (AID 743202; active = well fitted activation curve with a large enough effect in the signal ratio in the repeat runs, not every such curve was filed as active; inconclusive = weak or mixed curves, or effect the other way; inactive = no such curve, though single readings can be large or run the other way; the % refers to the signal ratio; also: % is scaled to controls: 0 for no effect and ±100 for the full control effect); conditions: HepG2 ARE-bla reporter, beta-lactamase FRET, 16 h; activation: at 73.3 µM (top of the series) unless noted
# How it was run: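 ARE-bla HepG2 cells (beta-lactamase reporter under the antioxidant response element), plated 5 hours, then exposed to compounds 16 hours at 37 C. LiveBLAzer B/G FRET substrate added for 2 hours at room temperature; fluorescence intensity read.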
# [16] = qHTS assay to identify small molecule antagonists of the sonic hedgehog signaling (Shh) pathway (AID 1259369; calls by dose curve; also: nearly all actives have a fitted effect of over 45% in size; also: potency is read from the fitted curve at half-maximal effect)
# How it was run: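 3T3Gli1-Luc, conditioned-medium-stimulated, 24hr cpd, 37C/5% CO2; Gli1-driven firefly Luc luminescence after 30min RT with luciferase reagent. Cells plated 4hr before cpd.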
# [17] = biological target: Cytochrome P450 1A2 (Homo sapiens) (UniProt P05177); experiment: Cytochrome P450 Family 1 Subfamily A Member 2 (CYP1A2) small molecule antagonists: luciferase reporter qHTS assay (AID 1671199); also: nearly all actives have a fitted effect of over 50% in size; also: potency is read from the fitted curve at half-maximal effect
# How it was run: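 P450-Glo CYP1A2, 1536-well qHTS: enzyme/proluciferin substrate + cpd (DMSO), 10 min RT; NADPH regen, 1 h RT; detection reagent, 20 min; luminescence, RLU.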
# [18] = biological target: Glucocorticoid receptor (Homo sapiens) (UniProt P04150); experiment: qHTS assay to identify small molecule antagonists of the glucocorticoid receptor (GR) signaling pathway (AID 720692; active = well fitted inhibition curve with a large enough effect in the signal ratio in the repeat runs, not every such curve was filed as active; inconclusive = weak or mixed curves, or effect the other way; inactive = no such curve, though single readings can be large or run the other way; the % refers to the signal ratio; also: % is scaled to controls: 0 for no effect and ±100 for the full control effect); conditions: GR-bla HeLa, beta-lactamase FRET ratio, dexamethasone-stimulated, 18 h; activity change, negative = inhibition: at 58.5 µM (top of the series) unless noted
# How it was run: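 HeLa GR-bla cells; cmpd + dex 5 nM final, 18 h 37 C; LiveBLAzer B/G FRET substrate 2 h RT; fluorescence intensity read. Antagonist mode, qHTS.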
# [19] = qHTS assay to identify small molecule antagonists of the estrogen receptor alpha (ER-alpha) signaling pathway - cell viability counter screen (AID 743074; calls by dose curve;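 also: HEK293 cells carrying ER-alpha-UAS-bla reporter stimulated with 17beta-estradiol; % is scaled to controls: 0 for no effect and ±100 for the full control effect; nearly all actives have a fitted effect of over 45% in size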)
# Tags tell the direction and shape of the fitted curve or compound fluorescence and quenching.
# Chain of UniProt P04150 (P04150 whole entry, looked up): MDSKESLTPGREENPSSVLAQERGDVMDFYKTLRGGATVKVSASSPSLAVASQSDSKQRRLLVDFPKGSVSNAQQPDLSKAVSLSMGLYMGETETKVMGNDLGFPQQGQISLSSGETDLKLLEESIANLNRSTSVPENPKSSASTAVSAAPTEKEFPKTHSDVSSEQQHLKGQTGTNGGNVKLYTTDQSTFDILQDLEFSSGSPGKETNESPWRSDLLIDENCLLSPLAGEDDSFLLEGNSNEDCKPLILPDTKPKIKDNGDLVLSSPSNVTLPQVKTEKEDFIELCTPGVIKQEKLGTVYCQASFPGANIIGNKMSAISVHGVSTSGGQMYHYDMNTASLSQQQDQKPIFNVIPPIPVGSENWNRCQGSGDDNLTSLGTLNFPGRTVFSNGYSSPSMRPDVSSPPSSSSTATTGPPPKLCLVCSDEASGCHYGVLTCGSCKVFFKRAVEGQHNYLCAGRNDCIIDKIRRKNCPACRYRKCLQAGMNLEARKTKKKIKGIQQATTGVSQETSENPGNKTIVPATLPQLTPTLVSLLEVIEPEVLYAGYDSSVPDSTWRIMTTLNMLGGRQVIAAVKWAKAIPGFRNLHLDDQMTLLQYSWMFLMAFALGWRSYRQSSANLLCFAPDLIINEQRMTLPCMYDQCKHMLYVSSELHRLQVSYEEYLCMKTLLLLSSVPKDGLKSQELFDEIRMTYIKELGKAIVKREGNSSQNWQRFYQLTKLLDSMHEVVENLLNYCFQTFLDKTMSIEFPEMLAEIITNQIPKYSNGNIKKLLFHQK
# Chain of UniProt P37231 (P37231 whole entry, looked up): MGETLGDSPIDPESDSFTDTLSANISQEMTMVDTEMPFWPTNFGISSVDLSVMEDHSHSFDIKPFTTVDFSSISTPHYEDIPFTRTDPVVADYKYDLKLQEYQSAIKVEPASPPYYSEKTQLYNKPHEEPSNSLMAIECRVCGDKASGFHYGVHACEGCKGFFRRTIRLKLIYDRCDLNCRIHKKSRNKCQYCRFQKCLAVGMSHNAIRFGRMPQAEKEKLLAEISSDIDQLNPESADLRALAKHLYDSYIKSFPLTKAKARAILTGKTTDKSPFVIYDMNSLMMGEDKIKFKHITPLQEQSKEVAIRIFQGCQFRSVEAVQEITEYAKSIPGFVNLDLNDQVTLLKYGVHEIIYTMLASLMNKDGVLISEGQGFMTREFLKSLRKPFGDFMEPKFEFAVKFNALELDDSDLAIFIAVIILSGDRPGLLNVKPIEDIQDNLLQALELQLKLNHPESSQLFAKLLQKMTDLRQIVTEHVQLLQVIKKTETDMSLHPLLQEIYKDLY
# Chain of UniProt P05177 (P05177 whole entry, looked up): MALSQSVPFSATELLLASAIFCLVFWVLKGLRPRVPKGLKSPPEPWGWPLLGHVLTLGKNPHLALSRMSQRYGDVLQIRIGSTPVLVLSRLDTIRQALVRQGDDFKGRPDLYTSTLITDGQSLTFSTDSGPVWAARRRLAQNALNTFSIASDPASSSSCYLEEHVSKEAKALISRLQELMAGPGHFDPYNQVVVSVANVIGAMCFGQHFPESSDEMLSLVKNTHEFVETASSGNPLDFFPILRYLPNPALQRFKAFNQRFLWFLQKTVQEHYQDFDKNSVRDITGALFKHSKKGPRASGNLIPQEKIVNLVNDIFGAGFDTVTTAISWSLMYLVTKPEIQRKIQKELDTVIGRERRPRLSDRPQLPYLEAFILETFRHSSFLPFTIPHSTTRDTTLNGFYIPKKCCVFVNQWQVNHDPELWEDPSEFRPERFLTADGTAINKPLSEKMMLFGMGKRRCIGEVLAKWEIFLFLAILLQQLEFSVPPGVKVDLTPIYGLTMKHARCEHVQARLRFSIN
# Chain of UniProt P11473 (P11473 whole entry, looked up): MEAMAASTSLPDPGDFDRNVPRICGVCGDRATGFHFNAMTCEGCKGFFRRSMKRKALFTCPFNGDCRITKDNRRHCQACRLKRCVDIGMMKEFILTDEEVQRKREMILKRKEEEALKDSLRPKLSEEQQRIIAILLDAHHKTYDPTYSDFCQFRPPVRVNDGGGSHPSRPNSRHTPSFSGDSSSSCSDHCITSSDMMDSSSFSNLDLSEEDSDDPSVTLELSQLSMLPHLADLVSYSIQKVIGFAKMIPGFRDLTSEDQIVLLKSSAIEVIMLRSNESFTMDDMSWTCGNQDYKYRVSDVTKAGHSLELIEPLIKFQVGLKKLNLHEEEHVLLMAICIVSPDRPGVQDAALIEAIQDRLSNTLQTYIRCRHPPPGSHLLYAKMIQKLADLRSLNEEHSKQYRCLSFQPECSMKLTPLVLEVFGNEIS
# Chain of UniProt P10635 (P10635 whole entry, looked up): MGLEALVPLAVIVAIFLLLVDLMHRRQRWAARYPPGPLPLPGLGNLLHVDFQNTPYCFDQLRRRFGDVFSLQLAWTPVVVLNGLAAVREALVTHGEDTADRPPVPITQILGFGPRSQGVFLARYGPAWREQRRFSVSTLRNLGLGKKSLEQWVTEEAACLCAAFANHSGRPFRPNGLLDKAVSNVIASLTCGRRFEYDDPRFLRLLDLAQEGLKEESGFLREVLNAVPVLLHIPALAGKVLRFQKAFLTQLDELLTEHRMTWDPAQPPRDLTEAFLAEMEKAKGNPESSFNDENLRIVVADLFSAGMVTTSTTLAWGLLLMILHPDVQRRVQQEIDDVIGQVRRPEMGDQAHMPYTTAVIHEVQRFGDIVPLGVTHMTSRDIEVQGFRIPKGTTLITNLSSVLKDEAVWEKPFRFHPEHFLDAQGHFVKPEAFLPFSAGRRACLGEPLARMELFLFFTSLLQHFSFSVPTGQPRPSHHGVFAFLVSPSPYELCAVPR
# Chain of UniProt P06401 (P06401 whole entry, looked up): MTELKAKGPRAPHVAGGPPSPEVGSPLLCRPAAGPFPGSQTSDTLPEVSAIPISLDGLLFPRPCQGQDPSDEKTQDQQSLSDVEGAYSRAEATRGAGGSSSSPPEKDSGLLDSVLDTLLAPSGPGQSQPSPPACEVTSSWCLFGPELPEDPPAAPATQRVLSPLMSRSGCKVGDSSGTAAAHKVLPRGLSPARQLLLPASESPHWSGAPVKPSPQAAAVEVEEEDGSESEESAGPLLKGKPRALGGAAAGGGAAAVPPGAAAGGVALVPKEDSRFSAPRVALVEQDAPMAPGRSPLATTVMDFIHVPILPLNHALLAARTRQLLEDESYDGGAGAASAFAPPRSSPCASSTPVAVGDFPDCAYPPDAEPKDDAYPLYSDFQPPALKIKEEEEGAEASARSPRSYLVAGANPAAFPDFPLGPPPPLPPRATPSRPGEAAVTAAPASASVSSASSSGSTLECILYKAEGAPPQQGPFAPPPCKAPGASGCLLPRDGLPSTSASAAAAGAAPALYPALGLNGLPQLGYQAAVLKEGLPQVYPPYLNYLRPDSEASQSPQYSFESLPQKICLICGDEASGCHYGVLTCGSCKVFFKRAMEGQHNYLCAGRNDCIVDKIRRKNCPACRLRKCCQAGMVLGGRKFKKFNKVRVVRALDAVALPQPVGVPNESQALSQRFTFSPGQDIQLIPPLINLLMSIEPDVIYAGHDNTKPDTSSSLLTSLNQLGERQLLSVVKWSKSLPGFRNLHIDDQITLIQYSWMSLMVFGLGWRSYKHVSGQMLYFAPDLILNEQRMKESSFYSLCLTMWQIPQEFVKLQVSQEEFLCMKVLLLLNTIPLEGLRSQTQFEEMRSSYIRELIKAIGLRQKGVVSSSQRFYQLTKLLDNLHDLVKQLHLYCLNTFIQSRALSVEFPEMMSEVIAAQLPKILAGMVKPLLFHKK
# Chain of UniProt P11712 (P11712 whole entry, looked up): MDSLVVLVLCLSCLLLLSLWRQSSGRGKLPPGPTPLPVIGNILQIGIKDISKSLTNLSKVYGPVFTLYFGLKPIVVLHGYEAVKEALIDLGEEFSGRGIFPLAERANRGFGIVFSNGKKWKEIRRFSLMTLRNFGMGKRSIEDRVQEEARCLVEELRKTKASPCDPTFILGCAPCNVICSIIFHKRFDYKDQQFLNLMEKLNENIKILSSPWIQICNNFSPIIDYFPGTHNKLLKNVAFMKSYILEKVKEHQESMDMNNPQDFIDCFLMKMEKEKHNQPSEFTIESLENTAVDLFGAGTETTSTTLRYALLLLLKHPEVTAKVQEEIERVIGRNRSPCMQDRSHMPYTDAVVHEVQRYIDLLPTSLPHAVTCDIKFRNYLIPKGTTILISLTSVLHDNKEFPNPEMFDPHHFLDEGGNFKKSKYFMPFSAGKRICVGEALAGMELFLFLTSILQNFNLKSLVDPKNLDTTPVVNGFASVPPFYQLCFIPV
# Chain of UniProt P33261 (P33261 whole entry, looked up): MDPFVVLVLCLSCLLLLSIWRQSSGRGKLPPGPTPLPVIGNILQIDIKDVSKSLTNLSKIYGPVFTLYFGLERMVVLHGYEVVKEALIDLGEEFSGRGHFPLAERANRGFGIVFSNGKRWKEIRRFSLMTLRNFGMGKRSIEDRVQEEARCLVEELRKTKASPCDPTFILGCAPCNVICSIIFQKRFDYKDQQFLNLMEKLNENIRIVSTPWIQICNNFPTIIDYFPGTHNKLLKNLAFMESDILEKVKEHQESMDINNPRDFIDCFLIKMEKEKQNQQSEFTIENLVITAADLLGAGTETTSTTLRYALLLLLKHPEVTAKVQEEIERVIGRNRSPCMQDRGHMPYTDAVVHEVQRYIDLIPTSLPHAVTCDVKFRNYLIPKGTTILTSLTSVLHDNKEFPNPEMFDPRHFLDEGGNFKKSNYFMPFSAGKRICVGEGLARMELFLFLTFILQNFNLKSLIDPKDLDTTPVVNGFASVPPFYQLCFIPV
smiles,measurement,setting,value
O=S(=O)(c1ccccc1)c1ccccc1,activation,[1],inconclusive: 2.12%
same,Potency,[2],inconclusive: 68.6 µM
same,Potency,[3],"inconclusive: 61.1 µM [cytotoxic, single point]"
same,Potency,[4],"inconclusive: 24.3 µM [rising, full curve]"
same,Potency,[5],inactive
same,"activity change, negative = inhibition",[6],inconclusive: -24%
same,Potency,[7],"inconclusive: 61.1 µM [cytotoxic, partial curve, poor fit]"
same,Potency,[8],inconclusive: 48.6 µM [partial curve]
same,Potency,[9],active: 63.3 µM
CCCCOP(=O)(CCCC)OCCCC,Potency,[10],inactive
ClC1(Cl)C2(Cl)C3(Cl)C4(Cl)C(Cl)(Cl)C5(Cl)C3(Cl)C1(Cl)C5(Cl)C24Cl (stereo not drawn),Potency,[1],"inconclusive: 0.77 µM [rising, full curve]"
same,Potency,[2],"inconclusive: 68.6 µM [inhibitor, single point]"
same,Potency,[11],"inconclusive: 68.6 µM [cytotoxic, partial curve, poor fit]"
same,Potency,[12],inactive
same,"ratio activity, negative = inhibition",[5],inconclusive: 39.5%
same,Potency,[7],"inconclusive: 27.3 µM [rising, single point]"
same,Potency,[13],"inconclusive: 13.7 µM [rising, full curve, poor fit]"
same,Potency,[14],"inconclusive: 50.2 µM [inhibitor, partial curve, poor fit]"
C[C@H](N)[C@H](O)c1ccc(O)c(O)c1,Potency,[3],active: 13.3 µM
same,Potency,[4],active: 26.6 µM
same,"ratio activity, negative = inhibition",[5],inconclusive: -7.11%
same,activation,[15],inconclusive: -28.7%
same,Potency,[16],"inconclusive: 33.5 µM [inhibitor, single point]"
same,Potency,[7],"inconclusive: 2.66 µM [rising, full curve, poor fit]"
same,Potency,[8],inactive
same,Potency,[9],inactive
same,Potency,[14],inactive
same,Potency,[17],inactive
CCS(=O)(=O)c1cccnc1S(=O)(=O)NC(=O)Nc1nc(OC)cc(OC)n1,Potency,[16],"inconclusive: 61.1 µM [inhibitor, single point]"
same,Potency,[8],inactive
same,Potency,[10],"inconclusive: 79.6 µM [inhibitor, partial curve, poor fit]"
same,Potency,[17],"inconclusive: 71 µM [inhibitor, partial curve]"
BrCC1CO1 (stereo not drawn),Potency,[2],"inconclusive: 2.74 µM [activator, partial curve, poor fit]"
same,Potency,[18],inactive
same,Potency,[3],inactive
same,Potency,[13],"inconclusive: 61.4 µM [rising, partial curve]"
same,Potency,[9],inactive
NC(=O)CS(=O)C(c1ccccc1)c1ccccc1 (stereo not drawn),Potency,[2],"inconclusive: 29.8 µM [rising, partial curve, poor fit]"
same,Potency,[18],inactive
same,Potency,[12],inactive
same,Potency,[19],inactive
same,Potency,[5],inactive
same,Potency,[7],"inconclusive: 21.1 µM [rising, partial curve, poor fit]"
same,Potency,[10],"inconclusive: 17.4 µM [inhibitor, partial curve, poor fit]"
same,Potency,[17],inactive
CC(C)(COCC1CO1)COCC1CO1 (stereo not drawn),Potency,[16],"inconclusive: 68.6 µM [inhibitor, single point]"
same,Potency,[8],inactive
Clc1ccc(Oc2ccccc2)cc1,Potency,[13],inactive
same,Potency,[10],inactive
same,Potency,[9],"inconclusive: 89.4 µM [inhibitor, single point]"
same,Potency,[17],"inconclusive: 44.8 µM [inhibitor, partial curve]"
CC(C)(C)NC[C@H](O)c1ccc(O)cc1Cl,Potency,[2],inactive
same,Potency,[11],inactive
same,Potency,[15],inactive
same,Potency,[6],inactive
O=[N+]([O-])c1cc(Cl)ccc1Cl,Potency,[16],inactive
same,Potency,[17],"inconclusive: 44.8 µM [inhibitor, partial curve, poor fit]"
Cc1coc2c1CCC(C)C2 (stereo not drawn),Potency,[2],active: 25.1 µM
same,"activity change, negative = inhibition",[18],inconclusive: -16.3% [at 78.9 µM]
same,activation,[15],inconclusive: -0.434% [at 94.8 µM]
same,"activity change, negative = inhibition",[6],inconclusive: 10.6% [at 78.8 µM]
same,Potency,[8],inactive
same,Potency,[10],"inconclusive: 58.3 µM [inhibitor, partial curve]"
same,Potency,[14],"inconclusive: 41.3 µM [inhibitor, partial curve]"
same,Potency,[17],"inconclusive: 65.4 µM [inhibitor, partial curve]"
COc1ccc([N+](=O)[O-])cc1O,Potency,[9],"inconclusive: 38.9 µM [inhibitor, single point]"
same,Potency,[14],"inconclusive: 24.5 µM [inhibitor, partial curve, poor fit]"
same,Potency,[17],"inconclusive: 27.5 µM [inhibitor, partial curve]"
